# Reference: the supplement of paper PMC7335073
# Over roughly 4,100 sequences, “relative CpG methylation activity (normalised to average over all NNNCGNNN flanks)” has its median near 0.87; the highest 2% begin near 2.4. Some of the results follow.
# Target: DNMT3A catalytic domain (mouse) (UniProt O88508)
# Experiment: relative CpG methylation activity (normalised to average over all NNNCGNNN flanks) (relative (1 = mean)); higher = more methylation of the central CpG
# Settings: system: in vitro, murine catalytic domain; CpG state: hemimethylated substrate pool; residues: 608-908
# Experimental: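 Deep enzymology: a pool of dsDNA substrates with a central CpG flanked by 10 random nucleotides on each side was methylated by the murine DNMT3A or DNMT3B catalytic domain (0.8 mM SAM, 37 °C, 60 min). Methylation was then read out by hairpin ligation, bisulfite conversion and NGS. Values are the average methylation of each NNNCGNNN context (±3 flanks; the outer flanks are random and averaged over), normalised to the overall mean, so 1 = average activity.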
row,Sequence,relative CpG methylation activity
1,GGGCGGGT,0.571
2,CCGCGTCT,1.39
3,GATCGACC,0.609
4,ACCCGACC,1.54
5,GCGCGAAT,0.817
6,AGACGTCG,1.52
7,GCACGGAG,0.34
8,GTTCGAAG,0.294
9,GAACGTAA,0.932
10,TAACGAAG,0.365
11,CATCGTTA,0.481
12,CCTCGAAT,0.708
13,GCACGGCC,1.84
14,CCCCGCAT,1.12
15,TGTCGGTC,0.542
16,TTCCGGTC,1.9
17,TCACGTCT,1.96
18,ACTCGAGC,1.62
19,TTGCGATA,1.13
20,ATTCGACT,0.892
21,CCCCGAAC,1.69
22,GATCGCCT,1.08
23,TAGCGTTA,0.317
24,ACCCGTGA,0.758
25,AGCCGCTG,0.808

row,Sequence,relative CpG methylation activity
1,GAACGAGG,0.366
2,TAGCGGTC,0.479
3,AGCCGCTC,0.894
4,ACTCGTGT,0.429
5,GTTCGATT,1.15
6,TCTCGATC,1.24
7,CTGCGGGC,1.65
8,CTGCGGCC,1.59
9,GTTCGCAA,1.24
10,AATCGGGT,0.351
11,CGCCGGCG,0.625
12,ACACGGGG,0.593
13,TGTCGCCC,1.85
14,GTGCGCCG,1.79
15,CCGCGGAC,0.958
16,GGACGACA,0.678
17,TGACGCCT,1.38
18,TAGCGGCT,0.556
19,TGTCGGGG,0.025
20,TATCGCAA,0.653
21,CGCCGCGC,0.549
22,AAACGCCC,1.3
23,TCTCGGGA,0.811
24,ACTCGGGT,0.694
25,ACTCGATC,1.17

row,Sequence,relative CpG methylation activity
1,CTCCGGAG,0.263
2,CCTCGCAA,1.31
3,GCGCGCCA,1.61
4,CGACGTTG,0.323
5,CAGCGTCG,0.88
6,GCACGTTA,1.38
7,GTTCGGTG,0.222
8,CGTCGTAA,0.807
9,TAGCGGCG,0.253
10,TAACGGAA,0.677
11,ACCCGGGT,0.672
12,ACACGAAG,0.769
13,GAACGCTT,1.35
14,CGTCGCGC,0.782
15,GGACGATA,0.784
16,AGCCGCGA,0.506
17,ATACGAGG,1.25
18,ACTCGCCG,1.59
19,GATCGCAC,0.525
20,TTGCGGCG,0.725
21,TTTCGTGG,0.217
22,CGTCGATA,0.491
23,CGCCGGGT,0.38
24,CTCCGTTC,1.57
25,GTCCGCAG,1.09

row,Sequence,relative CpG methylation activity
1,CTTCGCAG,0.865
2,AATCGAGT,0.206
3,GAACGAAG,0.369
4,ATCCGCGG,0.871
5,ATCCGGCT,1.32
6,TAACGATC,0.922
7,ACGCGTTG,0.53
8,CATCGACC,0.793
9,CGCCGGAG,0.137
10,GGCCGTTG,0.368
11,CTTCGGTC,1.38
12,TCACGCTG,1.32
13,TTTCGCAC,1.32
14,GAGCGGAC,0.472
15,GTTCGAGG,0.109
16,CAACGTGG,0.153
17,AGACGTGT,0.344
18,GACCGGAG,0.152
19,ACCCGATT,1.01
20,CCGCGCTA,1.14
21,ATACGGCA,1.9
22,CTCCGTAC,1.3
23,ACACGCTA,1.76
24,CTACGCCC,2.62
25,GCGCGAAC,1.4

row,Sequence,relative CpG methylation activity
1,TACCGTTA,0.738
2,TACCGACG,0.602
3,TGCCGTGC,0.417
4,TCGCGTGT,0.325
5,GAACGAAT,0.714
6,GAACGATC,1.1
7,TCTCGTAT,0.857
8,CGTCGAGG,0.0833
9,AGACGATA,1.13
10,CGACGACT,0.568
11,TACCGGTA,0.641
12,AACCGAAA,1.12
13,ATACGCAT,1.79
14,TGGCGTGC,0.253
15,TCACGGGG,0.733
16,TCCCGTGA,0.701
17,CGTCGTGC,0.0467
18,TTTCGAAG,0.543
19,CGTCGGTC,0.758
20,TGACGATA,0.409
21,TCGCGATA,0.655
22,GGCCGTAA,0.805
23,CCGCGTCG,1.3
24,AACCGGAA,0.796
25,GCGCGGCC,0.991

row,Sequence,relative CpG methylation activity
1,AGTCGAAC,0.657
2,TGGCGTCT,0.833
3,GGGCGTCA,1.28
4,CTTCGTCT,1.76
5,GTTCGCCG,1.92
6,GCCCGCCG,1.71
7,GTCCGTAA,1.74
8,CATCGAAG,0.227
9,ATTCGTGC,0.438
10,GCCCGTTC,1.09
11,CGCCGGGG,0.1
12,TCTCGATG,0.633
13,GCCCGACG,1.3
14,ATTCGTCC,1.67
15,GGACGCCG,1.1
16,AAACGACG,0.456
17,TGCCGATC,1.09
18,TTACGATT,1.46
19,CACCGTTG,0.409
20,TGCCGACC,1.23
21,AATCGATC,0.532
22,GTACGCGC,2.11
23,ACACGTAA,1.94
24,CTCCGGGG,0.938
25,GAGCGTTC,0.769

row,Sequence,relative CpG methylation activity
1,CTGCGAAT,1.14
2,TCCCGATT,0.954
3,TATCGTGT,0.3
4,ATGCGACC,1.27
5,ACTCGATT,0.858
6,GCGCGTCA,1.25
7,ACGCGACT,0.964
8,GCGCGTCG,1.51
9,ACGCGACA,1.19
10,GCACGAAA,1.43
11,ATTCGTGA,0.534
12,TTACGTCC,2.56
13,CAACGCAT,0.896
14,TCCCGGTA,0.809
15,TTTCGTAG,0.778
16,AGTCGTGG,0.159
17,GTACGGTG,1.16
18,TGTCGCAG,0.459
19,TGGCGCCC,1.29
20,CCCCGAGT,1.08
21,AGCCGATA,0.75
22,GACCGATC,1.55
